Experimental data reported in the supplement of paper PMC8948288.
The sequences are guide strands of siRNAs; only the seed at positions 2 to 7 varies.

Key:
GL261 = assay: cell viability relative to siNT1 (ATP content); H4 human neuroglioma and GL261 mouse glioma; higher = less toxic; settings: siRNA concentration 25 nM; 96 h; mouse
H4 = assay: as above; settings: siRNA concentration 10 nM; 96 h; human
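Further: cells reverse transfected with siRNA duplexes via lipid reagent, ATP read by luminescence, triplicate wells, values scaled to mean viability with non-targeting control siNT1.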

Sequence | cell viability (GL261) | cell viability (H4)
UGCGACAACAUGUAAACCA | 40.2% | 82.9%
UGCGACCACAUGUAAACCA | 36.6% | 26.3%
UGCGACGACAUGUAAACCA | 38.4% | 73.8%
UGCGACUACAUGUAAACCA | 25.2% | 75.1%
UGCGAGAACAUGUAAACCA | 49.2% | 97.1%
UGCGAGCACAUGUAAACCA | 25.2% | 72.7%
UGCGAGGACAUGUAAACCA | 20.8% | 72.1%
UGCGAGUACAUGUAAACCA | 56.7% | 21.5%
UGCGAUAACAUGUAAACCA | 69.3% | 45.2%
UGCGAUCACAUGUAAACCA | 28.6% | 55.5%
UGCGAUGACAUGUAAACCA | 44.4% | 82.9%
UGCGAUUACAUGUAAACCA | 46.8% | 85.2%
UGCGCAAACAUGUAAACCA | 68.4% | 104%
UGCGCACACAUGUAAACCA | 29.5% | 111%
UGCGCAGACAUGUAAACCA | 40.6% | 57.7%
UGCGCAUACAUGUAAACCA | 45.6% | 84%
UGCGCCAACAUGUAAACCA | 41.9% | 85.9%
UGCGCCCACAUGUAAACCA | 33.1% | 53%
UGCGCCGACAUGUAAACCA | 34.9% | 87.6%
UGCGCCUACAUGUAAACCA | 57% | 56.6%
UGCGCGAACAUGUAAACCA | 53.6% | 75.8%
UGCGCGCACAUGUAAACCA | 49.1% | 73.3%
UGCGCGGACAUGUAAACCA | 21.4% | 70.1%

Sequence | cell viability (GL261) | cell viability (H4)
UGCGCGUACAUGUAAACCA | 46.3% | 96.8%
UGCGCUAACAUGUAAACCA | 55.5% | 117%
UGCGCUCACAUGUAAACCA | 21.5% | 66.6%
UGCGCUGACAUGUAAACCA | 47.2% | 65.4%
UGCGCUUACAUGUAAACCA | 27.1% | 122%
UGCGGAAACAUGUAAACCA | 40.5% | 67%
UGCGGACACAUGUAAACCA | 14% | 35.6%
UGCGGAGACAUGUAAACCA | 24.1% | 42.4%
UGCGGAUACAUGUAAACCA | 20% | 50.2%
UGCGGCAACAUGUAAACCA | 14.3% | 39.3%
UGCGGCCACAUGUAAACCA | 13.7% | 50.6%
UGCGGCGACAUGUAAACCA | 5.9% | 11.9%
UGCGGCUACAUGUAAACCA | 11.6% | 14.1%
UGCGGGAACAUGUAAACCA | 23.3% | 39.5%
UGCGGGCACAUGUAAACCA | 12.4% | 16.7%
UGCGGGGACAUGUAAACCA | 13% | 10.9%
UGCGGGUACAUGUAAACCA | 20.8% | 44.3%
UGCGGUAACAUGUAAACCA | 36.6% | 67.9%
UGCGGUCACAUGUAAACCA | 5.54% | 7.79%
UGCGGUGACAUGUAAACCA | 31.4% | 31.5%
UGCGGUUACAUGUAAACCA | 27.7% | 47.7%
UGCGUAAACAUGUAAACCA | 47.5% | 90.6%
UGCGUACACAUGUAAACCA | 55.4% | 128%

Sequence | cell viability (GL261) | cell viability (H4)
UGCGUAGACAUGUAAACCA | 52.8% | 94.6%
UGCGUAUACAUGUAAACCA | 51.8% | 99.8%
UGCGUCAACAUGUAAACCA | 36.8% | 76.3%
UGCGUCCACAUGUAAACCA | 37.3% | 41.9%
UGCGUCGACAUGUAAACCA | 30.6% | 89.3%
UGCGUCUACAUGUAAACCA | 43.6% | 57.7%
UGCGUGAACAUGUAAACCA | 49.8% | 77.1%
UGCGUGCACAUGUAAACCA | 22.7% | 69.8%
UGCGUGGACAUGUAAACCA | 36.8% | 84.5%
UGCGUGUACAUGUAAACCA | 41.7% | 51.4%
UGCGUUAACAUGUAAACCA | 49.6% | 73.4%
UGCGUUCACAUGUAAACCA | 36.6% | 50.5%
UGCGUUGACAUGUAAACCA | 45.9% | 76.1%
UGCGUUUACAUGUAAACCA | 25% | 108%
UGCUAAAACAUGUAAACCA | 56.7% | 103%
UGCUAACACAUGUAAACCA | 9.54% | 2.58%
UGCUAAGACAUGUAAACCA | 49.3% | 88%
UGCUAAUACAUGUAAACCA | 26.7% | 31.8%
UGCUACAACAUGUAAACCA | 42.1% | 92.4%
UGCUACCACAUGUAAACCA | 30.7% | 8.55%
UGCUACGACAUGUAAACCA | 60.3% | 74.4%
UGCUACUACAUGUAAACCA | 28.3% | 10.3%
UGCUAGAACAUGUAAACCA | 59.5% | 82.5%

Sequence | cell viability (GL261) | cell viability (H4)
UGCUAGCACAUGUAAACCA | 19.3% | 8.44%
UGCUAGGACAUGUAAACCA | 62.9% | 40%
UGCUAGUACAUGUAAACCA | 33.3% | 44%
UGCUAUAACAUGUAAACCA | 44.1% | 75.5%
UGCUAUCACAUGUAAACCA | 21.1% | 56.8%
UGCUAUGACAUGUAAACCA | 62.6% | 77.2%
UGCUAUUACAUGUAAACCA | 47.6% | 64.9%
UGCUCAAACAUGUAAACCA | 70.4% | 108%
UGCUCACACAUGUAAACCA | 51.8% | 57.9%
UGCUCAGACAUGUAAACCA | 51.2% | 62.3%
UGCUCAUACAUGUAAACCA | 47.7% | 79.4%
UGCUCCAACAUGUAAACCA | 56.9% | 34.9%
UGCUCCCACAUGUAAACCA | 12.4% | 31.3%
UGCUCCGACAUGUAAACCA | 32.2% | 52%
UGCUCCUACAUGUAAACCA | 36.6% | 22.6%
UGCUCGAACAUGUAAACCA | 54.8% | 94.6%
UGCUCGCACAUGUAAACCA | 42.5% | 46.4%
UGCUCGGACAUGUAAACCA | 47.3% | 68.1%
UGCUCGUACAUGUAAACCA | 37.1% | 57.9%
UGCUCUAACAUGUAAACCA | 57.8% | 93.3%
UGCUCUCACAUGUAAACCA | 14% | 64.7%
